Screen size: about 150,000 compounds; about 540 (0.36%) showed an effect of 50% or more. The list shows a part of the results.

In the experiment the test system is Plasmodium falciparum. Kind of experiment: Primary screen in NF54 nanoGlo assay, in single point, at 2uM, 72h; a lower Z score goes with more inhibition. It counts as functional, Erythrocyte. As to conditions: timepoint 72 hour.
One may read the % Inhibition as the drop in the measured response relative to a control, in per cent. In the case of `COc1ccc(OC)c(CCN2CC(=O)N(c3ccc(C(C)C)cc3)[C@@H]3CS(=O)(=O)C[C@@H]32)c1`, the “% Inhibition” value is -8% and the Z score turned out to be 1.02.

As to `CCOC(=O)c1cc(S(=O)(=O)N2CCC[C@H]2C(=O)Nc2ccc(OC)c(Cl)c2)cn1C`, the “% Inhibition” value worked out at 0% and the Z score was 0.07.

Consider `COc1ccc(C[C@@]2(CCC(=O)N(C)Cc3csc(-c4cccs4)n3)CCC(=O)N2)c(F)c1`, for which the “% Inhibition” value was -3% and the Z score is 0.38.

In the case of `CCc1nc(C)sc1CNC(=O)N(C)CCn1ccnc1C`, the “% Inhibition” value was -5% and the Z score is listed as 0.86.

On to `CC(C)OC1CCN(c2nc3cc(S(N)(=O)=O)ccc3[nH]2)CC1`, for which the “% Inhibition” value was -4% and the Z score is given as 0.52.

Take `CCn1cncc1CNC(=O)c1csc(C)n1`: the “% Inhibition” value was -5% and the Z score is on record as 0.93.

Turning to `CCOC(=O)c1cc(C(F)(F)F)n(CC)n1`, the “% Inhibition” value is listed as -5% and the Z score is reported as 0.78.

As for `CN1CCC2C(CCN2C(=O)Nc2ccc(Cl)c(C(F)(F)F)c2)C1` (stereo unspecified), the “% Inhibition” value came out at 42% and the Z score was -6.06.

In the case of `O=C(NCc1ccc2c(c1)OCO2)c1cc2n(n1)CCN(Cc1ccccc1F)C2=O`, the “% Inhibition” value is -1% and the Z score is listed as 0.07.

As to `CCCCn1nc(NC(=O)c2cc(-c3ccccc3)nc3ncnn23)cc1C`, the “% Inhibition” value is 22% and the Z score is reported as -2.5.

With `Cn1ncc2c(N3CCC[C@H]3c3ccccn3)ncnc21`, the “% Inhibition” value is -4% and the Z score worked out at 0.7.

As to `COc1cccc(CN[C@@H]2CCC[C@@H](C(=O)N(C)Cc3cccnc3)CC(=O)N(C)C2)c1`, the “% Inhibition” value is recorded as 0% and the Z score is given as -0.03.

For `Cn1cccc1C(=O)Nc1ccc(-c2cccc(F)c2F)cn1`, the “% Inhibition” value is on record as -16% and the Z score is on record as 2.93.

In the case of `CCc1csc(CN[C@@H](C)CC(C)(C)OC)n1`, the “% Inhibition” value was -4% and the Z score is 0.68.

In the case of `Cc1ccc2oc(-c3ccc(NC(=O)c4ccc5c(c4)OCCO5)cc3O)nc2c1`, the “% Inhibition” value is given as -12% and the Z score was found to be 1.96.

As to `O=C(NCc1noc2c1CCCC2)N1CC2C3CCC(C3)C2C1` (stereo unspecified), the “% Inhibition” value is recorded as -6% and the Z score was 0.86.

For `CC(C)(C)n1ncnc1CNC1(c2ccccc2Br)CC1`, the “% Inhibition” value was -5% and the Z score is 0.57.

`CN(C)C(=O)c1cc(CN)cc(NC(=O)c2ccccn2)c1`: the “% Inhibition” value is recorded as -1% and the Z score was 0.09.

`Fc1ccc([C@@H]2CCc3nnc(Cc4ccccc4)n3-c3cc(F)ccc32)cc1`: the “% Inhibition” value is listed as -3% and the Z score amounted to 0.5.

Take `Cc1cc(F)c(C(=O)N[C@@H](C(C)C)C2CC2)c(F)c1`: the “% Inhibition” value was -1% and the Z score is recorded as 0.19.

Take `O=C(N[C@H]1C[C@@](CO)(c2ccccc2)C1)c1nc[nH]c1C(F)(F)F`: the “% Inhibition” value is listed as -6% and the Z score worked out at 1.15.

With `Cc1ccccc1-c1cn[nH]c1[C@H]1CCCN(C(=O)CCCc2ccccc2)C1`, the “% Inhibition” value is -19% and the Z score turned out to be 2.7.

Take `CNC(=O)[C@@H]1CCCN1C(=O)c1nnn(-c2cccc3ncccc23)c1C`: the “% Inhibition” value is -5% and the Z score amounted to 0.5.

Take `Cc1ccc(OCCc2nnc(NC(=O)[C@]3(C)CCCCO3)s2)cc1`: the “% Inhibition” value was -3% and the Z score was 0.47.

Consider `CN(CC(=O)NC1CC1)C(=O)c1ccc(-c2ccccc2F)o1`, for which the “% Inhibition” value is 1% and the Z score was -0.27.

Regarding `O=C1CC[C@H](CCNCc2cc3c(cc2Cl)OCO3)N1CC1CC1`, the “% Inhibition” value is given as -13% and the Z score is 1.81.

For `C[C@H]1CN(Cc2c(C(=O)N3CCCCCCC3)nc3ccc(Cl)cn23)CCN1C`, the “% Inhibition” value is reported as -2% and the Z score stood at 0.42.

On to `Clc1ccc(-c2nc(C3CC3)ncc2-c2nnnn2-c2ccccc2)cc1Cl`, for which the “% Inhibition” value is 1% and the Z score is recorded as -0.22.

`CC(=O)Nc1cccc(F)c1-c1nc[nH]n1`: the “% Inhibition” value was -5% and the Z score was 0.98.

In the case of `CC1CN(C)CC(C)N1C(=O)CCC(F)(F)F` (stereo unspecified), the “% Inhibition” value is reported as -3% and the Z score was 0.43.

On to `O=C(Nc1ccc(Cl)c(Cl)c1)N1C2CCC1CC(n1cncn1)C2` (stereo unspecified), for which the “% Inhibition” value was -1% and the Z score is reported as 0.16.

As to `CC(=O)Nc1cc(NC2CCN(c3nc(C)cs3)CC2)ccc1C`, the “% Inhibition” value is listed as -8% and the Z score is 0.91.

Take `Cc1ccccc1C(CN1CCOCC1)NCC1CCCN(C)C1` (stereo unspecified): the “% Inhibition” value is -5% and the Z score stood at 0.51.

On to `COC(=O)c1cc(NC(=O)NC[C@H](O)C(F)(F)F)n(C)n1`, for which the “% Inhibition” value is listed as 8% and the Z score is on record as -1.05.

For the compound `O=C(NC(CC1CCCCC1)C(=O)O)C1CCC2CC2C1` (stereo unspecified), the “% Inhibition” value is -23% and the Z score was 2.49.

Regarding `COC1(C(F)(F)F)CN(C(=O)Nc2ccncc2N(C)C)C1`, the “% Inhibition” value is on record as -10% and the Z score came to 1.99.

Regarding `O=C(NC[C@H]1CCCC[C@@H]1O)c1ccoc1C(F)(F)F`, the “% Inhibition” value is -5% and the Z score came to 0.81.

For `Clc1ccc([C@@H]2CCCN2c2nnc(-c3ccccn3)s2)cc1`, the “% Inhibition” value was -9% and the Z score was 1.44.

With `CC(C)c1nccc(CN2CCC[C@H](c3nnc[nH]3)C2)n1`, the “% Inhibition” value is recorded as -11% and the Z score is on record as 1.47.

As to `Cc1ccccc1CN1CCN(c2cccc3ccccc23)C(=O)[C@@H]1C`, the “% Inhibition” value is listed as -18% and the Z score amounted to 2.49.

As to `N#Cc1ccc(-c2nc(C(=O)NC[C@H]3CCCO3)no2)cc1`, the “% Inhibition” value is on record as -20% and the Z score amounted to 1.8.

Consider `O=C(CCc1cccnc1)N1CCc2ncnc(N3CCCC3)c2CC1`, for which the “% Inhibition” value was -27% and the Z score worked out at 2.72.

As to `O=C(c1cc(C2CC2)nc2ccccc12)N1CCC[C@H](Nc2ccc3c(c2)OCCO3)C1`, the “% Inhibition” value was 6% and the Z score is given as -0.9.

Regarding `COC(=O)c1ccccc1NC(=O)CS(=O)(=O)c1nnnn1-c1cccc2ccccc12`, the “% Inhibition” value is on record as -10% and the Z score is recorded as 0.89.

For `COc1ccc(CN2CCC[C@@](O)(c3ccccc3)CC2)nc1`, the “% Inhibition” value is listed as -1% and the Z score is listed as 0.17.

Take `Cc1ccccc1Nc1nnc(CC(=O)N2CCN(c3ccccc3)CC2)s1`: the “% Inhibition” value is recorded as -16% and the Z score was 1.89.

For `CCC1CN(C(=O)NCCS(=O)(=O)N(CC)CC)CC(C)O1` (stereo unspecified), the “% Inhibition” value is recorded as -10% and the Z score stood at 0.94.

`O=C(CN1CCOCC1)N1CCC[C@H]1c1cccs1`: the “% Inhibition” value is -8% and the Z score came out at 1.2.

Regarding `C(=Cc1nnc(-c2cnccn2)o1)c1ccc2c(c1)OCCO2`, the “% Inhibition” value is given as -5% and the Z score is 0.88.

Turning to `Cc1cccc(C)c1OCC(O)CN1C(=O)C2CCCCN2C1=O` (stereo unspecified), the “% Inhibition” value is given as -2% and the Z score is reported as 0.45.

For `CC(C)=CCC/C(C)=C/CNC(=O)c1c(Cl)cnn1C`, the “% Inhibition” value is reported as 7% and the Z score is -1.27.

As for `CN1CCC(N(C[C@H]2CCOC2)C(=O)c2ccc3c(c2)OCO3)CC1`, the “% Inhibition” value is listed as -10% and the Z score was found to be 1.32.

Consider `CC1=C[C@@H](CN2CCC[C@H]2CO)[C@H](C(C)C)C[C@H]1Cc1nnc(-c2ccncc2)o1`, for which the “% Inhibition” value is recorded as 6% and the Z score is listed as -0.71.

Source of the values: ChEMBL document CHEMBL4888484, “Replenishing the malaria drug discovery pipeline: Screening and hit evaluation of the MMV Hit Generation Library 1 (HGL1) against asexual blood stage Plasmodium falciparum ,using a nano luciferase reporter read-out” (2022).
